Reference: PubChem BioAssay AID1645882 (National Center for Advancing Translational Sciences (NCATS), 2021)
About 120 (0.75%) of roughly 16,000 compounds were called active. Another 4% or so got no clear call; they are omitted. Calls come from the whole dose curve; as a rule, active = well fitted inhibition curve with a large enough effect; inconclusive = small, poorly fitted or top-dose-only effect; inactive = no such curve, though single readings can be large or run the other way. Some of the results follow.

These compounds were tested against Rap guanine nucleotide exchange factor 3 (Homo sapiens) (UniProt O95398) (assay: Validation qHTS for antagonist of cAMP-regulated guanine nucleotide exchange factor 3 (EPAC1)). Conditions: EPAC1 Rap1B-BODIPY-GDP exchange, fluorescence; series mostly up to 150 µM; activity change, negative = inhibition: at the top concentration.
UniProt O95398, sequence (O95398 whole entry, looked up): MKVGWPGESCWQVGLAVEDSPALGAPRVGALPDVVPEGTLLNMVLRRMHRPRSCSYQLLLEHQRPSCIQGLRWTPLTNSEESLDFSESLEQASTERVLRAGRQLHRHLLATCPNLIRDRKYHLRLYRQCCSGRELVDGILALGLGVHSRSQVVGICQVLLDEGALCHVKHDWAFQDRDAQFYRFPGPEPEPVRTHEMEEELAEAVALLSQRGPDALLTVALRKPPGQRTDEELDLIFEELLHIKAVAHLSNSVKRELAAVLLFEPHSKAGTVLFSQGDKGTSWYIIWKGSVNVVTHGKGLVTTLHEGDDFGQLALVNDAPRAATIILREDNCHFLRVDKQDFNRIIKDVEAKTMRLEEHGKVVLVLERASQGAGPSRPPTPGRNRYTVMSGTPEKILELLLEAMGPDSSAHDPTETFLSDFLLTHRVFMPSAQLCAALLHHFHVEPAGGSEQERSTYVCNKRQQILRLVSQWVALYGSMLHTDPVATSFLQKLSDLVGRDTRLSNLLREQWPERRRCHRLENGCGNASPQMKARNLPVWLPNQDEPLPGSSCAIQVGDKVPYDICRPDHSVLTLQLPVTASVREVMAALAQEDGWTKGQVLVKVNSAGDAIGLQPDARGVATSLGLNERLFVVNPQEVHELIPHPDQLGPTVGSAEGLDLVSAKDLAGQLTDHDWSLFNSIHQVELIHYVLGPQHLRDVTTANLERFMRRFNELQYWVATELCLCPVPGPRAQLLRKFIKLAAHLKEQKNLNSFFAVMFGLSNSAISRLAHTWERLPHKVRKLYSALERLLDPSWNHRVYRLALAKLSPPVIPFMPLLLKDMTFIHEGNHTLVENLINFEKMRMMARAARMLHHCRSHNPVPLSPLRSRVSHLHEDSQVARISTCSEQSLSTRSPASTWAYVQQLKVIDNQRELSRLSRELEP
How it was run: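 EPAC1 (100 nM) mixed with 250 nM RAP1B-BODIPY-GDP and 50 uM GDP; compounds in concentration series, 5 min at room temperature. Fluorescence (ex 480/em 540 nm) read every 5 min for 30 min; normalized to ATA control and DMSO.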
Note: nearly all actives have a fitted effect of over 75% in size.
Potency is the fitted concentration of half-maximal effect.
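Throughout, for activity change, negative = inhibition: plate controls were DMSO for no effect and ATA control for full effect.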

Compound | activity change, negative = inhibition | Potency
Cc1ccc(S(=O)(=O)N[C@@H](CCCCN)C(=O)CCl)cc1 | inactive | –
CCCN1CCC[C@@H](c2cccc(O)c2)C1 | inactive: -2.45% [at 75.8 µM] | –
CC1/C=C/C=C/CC/C=C/C=C/C=C/C=C/C(OC2OC(C)C(O)C(N)C2O)CC2O[C@](O)(CC(O)C(O)CCC(O)CC(O)CC(O)CC(=O)OC(C)C(C)C1O)CC(O)C2C(=O)O (some centres not stated) | inactive: 4.9% | –
O=C1CN=C(c2ccccc2)c2cc([N+](=O)[O-])ccc2N1 | inactive: 21% | –
CC[C@]12CCCN3CCC4(c5ccccc5NC4C(C(=O)O)C1)C32 (some centres not stated) | inactive: -11.2% | –
CCCCCCCCCCCCCC(=O)O[C@@H]1[C@@H](C)[C@@]2(O)[C@@H](C=C(CO)C[C@@]3(O)C(=O)C(C)=C[C@@H]23)C2C(C)(C)[C@@]21OC(C)=O (some centres not stated) | inactive: -20.3% [at 75.8 µM] | –
C[C@]12CC[C@@H](O)C[C@H]1CC[C@@H]1[C@H]2CC[C@]2(C)C(=O)CC[C@@H]12 | inactive: -0.629% | –
N[C@@H](Cc1ccc(Oc2cc(I)c(O)c(I)c2)c(I)c1)C(=O)O | inactive: -27.2% | –
CNC(=O)Oc1cccc2c1OC(C)(C)O2 | inactive: 16.4% | –
O=c1[nH]c(=O)n(Cl)c(=O)n1Cl | inactive: -2.02% | –
CC(C)NC(=O)N1CCC2(CC1)CCN(C(=O)Oc1ccccc1)CC2 | inactive: 12.5% | –
CCCCN(CC)c1c([N+](=O)[O-])cc(C(F)(F)F)cc1[N+](=O)[O-] | inactive: -4.23% | –
CC(=O)OC1CCC23C(=O)OC45CCC(C6=CC(=O)OC6)C4(C)CCC2C5CCC3(O)C1 (configuration not stated) | inactive: -2.32% | –
CN1CC[C@@]2(C)c3cc(O)ccc3N(C)[C@@H]12 | inactive: 10.1% | –
CC1=CC(=O)C2=C(C)C[C@H](O)[C@H]3[C@H](C)C(=O)O[C@@H]3C12 (some centres not stated) | inactive: 15% | –
CC(C)NC(C)C | inactive: 2.98% | –
COC(=O)CN1CN(c2ccccc2)C2(CCN(Cc3ccc4ccccc4c3)CC2)C1=O | inactive: -16.9% | –
CC(C)(O)C1C2OC(=O)C1[C@]1(O)CC3O[C@@]34C(=O)OC2[C@@]14C (some centres not stated) | inactive: 13.1% | –
COc1cc2c(cc1OC)C(C)NCC2 (configuration not stated) | inactive: 10.2% | –
C=C(C)[C@H]1O[C@H]2CC[C@@]3(C)[C@@](O)(CC[C@H]4[C@@H]5OC(C)(C)[C@H]6C[C@@H]7C(=C)Cc8c(Cl)cc9[nH]c(c5c9c8[C@@]76O)[C@@]43C)[C@]23O[C@@H]3[C@H]1O | inactive: -4.55% | –
COc1ccccc1CN1CC[C@@]2(CCCN(C(=O)Oc3ccccc3)C2)C1 | inactive: -0.285% | –
NC(=O)CN1CCCC1=O | inactive | –
COc1ccc(C[C@H]2NC[C@H](O)[C@@H]2OC(C)=O)cc1 | inactive: 6.76% | –
C[C@@H]1[C@@H]2Cc3ccc(O)cc3[C@@]1(C)CCN2CCc1ccccc1 | inactive: 28.8% [at 320 µM] | –
[N-]=[N+]=NCCN1CCC(O)CCC1=O (configuration not stated) | inactive: 12.2% | –

Compound | activity change, negative = inhibition | Potency
O=C(O)/C=C\CO | inactive: 11.6% | –
CC(=O)Oc1ccc(Cl)c2cccnc12 | inactive: 7.81% | –
COc1ccc(C(=O)c2c(C)n(CCN3CCOCC3)c3cc(I)ccc23)cc1 | inactive: -15.1% | –
O=P1(NCCCl)OCCCN1CCCl (configuration not stated) | inactive: 6.36% [at 75.8 µM] | –
O=S(=O)(c1ccc(Cl)cc1)c1ccc(Cl)cc1 | inactive: 30% [at 320 µM] | –
c1ccc(N2CCC3(CCNCC3)CC2)cc1 | inactive: -1.07% | –
COC(=O)C(Cl)C(=O)OC | inactive: 39.8% | –
O=C(c1ccncc1)N1CCC2(CC1)CN(Cc1ccccc1)C2 | inactive: 16.5% | –
CN1CC[C@@]2(C)c3cc(OC(=O)Nc4ccccc4)ccc3N(C)[C@@H]12 | inactive | –
Oc1ccc(Cl)cc1 | inactive | –
CC(C)c1c(CN(C)C(C)Cc2ccccc2)n(C)n(-c2ccccc2)c1=O (configuration not stated) | inactive: 3.06% [at 75.8 µM] | –
N#CCCN | inactive: -8.89% [at 75.8 µM] | –
Clc1ccc(CCC(Cn2ccnc2)Sc2c(Cl)cccc2Cl)cc1 (configuration not stated) | inactive: 7.43% [at 75.8 µM] | –
ClCCN(CCCl)c1ccc(C=Nc2ccc(/C=C/c3ccncc3)cc2)cc1 | inactive: 7.95% | –
CCON=O | inactive: -8.57% | –
CC1CC(C)C(=O)[C@H](C(O)CC2CC(=O)NC(=O)C2)C1 (some centres not stated) | inactive: 9.45% | –
CC(C)NP(=O)(NC(C)C)OP(=O)(NC(C)C)NC(C)C | inactive: -6.69% [at 75.8 µM] | –
C[N+](C)(C)CCOC(=O)C(O)(c1ccccc1)c1ccccc1 | inactive: 9% | –
C[C@@H]1O[C@H](O[C@@H]2C[C@@H](O)[C@]3(CO)[C@H]4[C@H](O)C[C@]5(C)[C@@H](C6=CC(=O)OC6)CC[C@@]5(O)[C@@H]4CC[C@]3(O)C2)[C@@H](O)[C@H](O)[C@H]1O | inactive: 6.89% | –
Cc1c2ccncc2c(C)c2c1[nH]c1ccccc12 | inactive | –
CC(C)(O)[C@@H]1C2OC(=O)[C@@H]1[C@]1(O)C[C@H]3O[C@]34C(=O)O[C@H]2[C@]14C (tested in a mixture with another compound) | inactive: -1.26% [at 75.8 µM] | –
CC(=O)OCC(=O)[C@H]1CC[C@H]2[C@@H]3CC[C@H]4C[C@H](O)CC[C@]4(C)[C@H]3C(=O)C[C@]12C | inactive: 1.34% [at 75.8 µM] | –
CC(=O)NBr | inactive: -9.89% [at 75.8 µM] | –
C=CCN1CCC2(C)c3cc(O)ccc3CC1C2C (configuration not stated) | inactive: 11.9% | –
CC(=O)Oc1c2c(c(CC=C(C)C)c3c1C(=O)C1=CC4CC5C(C)(C)OC(C/C=C(\C)C(=O)O)(C4=O)[C@]15O3)OC(C)(CCC=C(C)C)C=C2 (some centres not stated) | – | active: 44.7 µM

Compound | activity change, negative = inhibition | Potency
CCC1(c2cnc[nH]2)Cc2ccccc2C1 | inactive | –
O=C(O)COc1ccccc1 | inactive: -13.9% | –
CN(C)c1ccc(C=C2C(=O)NC(=O)NC2=O)cc1 | inactive: -2.79% | –
CC1=C2CC3C(CC=C4C[C@@H](O)CC[C@@]43C)[C@@H]2CC[C@]12O[C@@H]1C[C@H](C)CN[C@H]1[C@H]2C (some centres not stated) | inactive: 17.8% [at 201 µM] | –
Cc1ccc(C[N+](C)(C)C)o1 | inactive | –
CC1(C)C(O)CC(O)[C@]2(C)C1CC(O)[C@]1(C)C2CC[C@@]2(C)C(c3ccoc3)OC(=O)C3O[C@]312 (some centres not stated) | inactive: 0.0609% | –
CC(C)(Cc1c[nH]c2ccc(Cl)cc12)NCCOc1ccccc1OCC1CC1 | inactive | –
C[C@]12C=CC(=O)C=C1CC[C@@H]1[C@@H]2CC[C@]2(C)OC(=O)CC[C@@H]12 | inactive: 24.9% | –
CCCCC/C=C\C=C\[C@H](CCCCCCCC(=O)O)OO | inactive: -12.7% [at 1.57 µM] | –
C[C@]12CC[C@@H]3c4ccc(OC(=O)N(CCCl)CCCl)cc4CC[C@H]3[C@@H]1CC[C@@H]2O | inactive: -29.5% | –
CCCN1CCc2cccc3c2[C@H]1Cc1ccc(O)c(O)c1-3 | inactive: 4.39% [at 75.8 µM] | –
NC(N)=NOCCC(N)C(=O)O (configuration not stated) | inactive | –
CN1C2CCC1CC(C(=O)OC(CO)c1ccccc1)C2 (configuration not stated) | inactive: 14.1% | –
CC1N=C(N)OC1c1ccccc1 (configuration not stated) | inactive: 13.9% [at 320 µM] | –
Cc1nccc2c1[nH]c1ccccc12 | inactive | –
CCCN(CCC)C1CCc2cccc(O)c2C1 (configuration not stated) | inactive | –
O=C(Nc1ccccc1)N1CC2(CCN(C(=O)Oc3ccccc3)CC2)C1 | inactive: 15.1% | –
O=c1oc2ccccc2c(O)c1Cc1c(O)c2ccccc2oc1=O | inactive | –
c1cc(CN2CC3(CCNCC3)C2)ccn1 | inactive: 5.56% | –
OCCN(CCO)CCO | inactive: 4.77% | –
C[C@]12CC[C@H](O)CC1=CCC1C2CC[C@]2(C)C(=O)CC[C@@H]12 (some centres not stated) | inactive: 16.3% | –
c1cncc(C2=NCCC2)c1 | inactive: 24.4% | –
O=S(=O)(O)c1cc(O)ccc1O | inactive: 16.6% [at 75.8 µM] | –
O=[N+]([O-])c1cc([As](=O)(O)O)ccc1O | inactive | –
CCN1C[C@@]2(OC(=O)c3ccccc3NC(C)=O)CCC(OC)[C@@]34C5CC6C(OC)C[C@@](O)(C(CC23)[C@@H]14)C5(O)C6OC (some centres not stated) | inactive: 15.8% | –

Compound | activity change, negative = inhibition | Potency
O=[N+]([O-])c1cc(I)c(O)c(I)c1 | inactive: 21.3% | –
c1ccc2c(c1)[I+]c1ccccc1-2 | inactive | –
COc1cc2c(cc1OC)[C@]13CCN4CC5=CCOC6CC(=O)N2[C@@H]1[C@@H]6C5C[C@@H]43 (some centres not stated) | inactive: 9.89% | –
CCc1cccc(CC)c1N(COC)C(=O)CCl | inactive: -2.26% | –
COC(C/C=C/C=C/CC/C=C\CC(C)/C=C\C(=C/C(=O)O)CC(=O)O)/C(C)=C\C=C(/C)C(=O)O (configuration not stated) | inactive: 14.1% [at 15.3 µM] | –
O=C(O)c1ccc2[nH]cc(CCCCN3CC=C(c4ccccc4)CC3)c2c1 | inactive: 18.8% | –
CNc1ccc2oc(C[C@H]3O[C@@]4(CC[C@H]3C)O[C@H]([C@H](C)C(=O)c3ccc[nH]3)[C@H](C)C[C@H]4C)nc2c1C(=O)O | inactive: -12.1% [at 75.8 µM] | –
CC(C)CCCC1(C)C=Cc2c(O)c3c(c(CCC(C)C)c2O1)OC12C(CC4CC1C(C)(C)OC2(CCC(C)C(=O)O)C4O)C3=O (configuration not stated) | – | active: 70.8 µM
COc1ccc2c(c[n+](C)c3c4cc5c(cc4ccc23)OCO5)c1OC | inactive | –
CCOC(=O)c1ncn2c1[C@H]1CCCN1C(=O)c1cc(OC)ccc1-2 | inactive: 6.6% | –
CN1CC[C@@]2(C)c3cc(O)ccc3N(C)C12 (some centres not stated) | inactive: -7.22% [at 75.8 µM] | –
C[N+]1(C)CCCCC1COC(=O)C(O)(c1ccccc1)c1ccccc1 (configuration not stated) | inactive: -9.1% | –
CC(=O)CC1CCCCN1 (configuration not stated) | inactive: 10.5% | –
C=C1C2CCC3[C@@](CC[C@@H]4C(C(=O)O)CC(OC5OC(CO)C(OS(=O)(=O)O)C(OS(=O)(=O)O)C5OC(=O)CC(C)C)C[C@]34C)(C2)C1O (some centres not stated) | inactive: -13.9% | –
O=C1CCCCC1CN1CCCCC1 (configuration not stated) | inactive: 10.1% | –
CCN1C[C@]2(COC)[C@H](O)C[C@H](OC)[C@@]34[C@@H]5C[C@@]6(O)[C@H](OC(=O)c7ccccc7)[C@@H]5[C@@](OC(C)=O)([C@@H]([C@H](OC)[C@H]23)[C@@H]14)[C@@H](O)[C@@H]6OC | inactive: 18.6% | –
CNc1ccc(C(=O)CC(O)CCC(C)C2OC(=O)CC(O)CC(=O)CC(O)CC(O)CC(O)CC(O)CC3(O)CC(O)C(C(=O)OC)C(CC(O[C@@H]4O[C@H](C)[C@@H](O)[C@H](N)[C@@H]4O)/C=C/C=C/C=C/C=C/C=C/C=C/C=C/C2C)O3)cc1 (some centres not stated) | inactive: 14.8% | –
COc1cc2c3cc1Oc1c(OC)c(OC)cc4c1C(Cc1cccc(c1)Oc1ccc(c(O)c1)CC3N(C)CC2)N(C)CC4 (configuration not stated) | inactive: 4.91% | –
CC(C)C[C@H](NC(=O)[C@H](Cc1ccccc1)NC(=O)CNC(=O)[C@H](C)NC(=O)[C@@H](N)Cc1ccc(O)cc1)C(=O)O | inactive: 9.98% [at 15.3 µM] | –
c1ccc(N=Nc2ccccc2)cc1 | inactive: 10.1% | –
CN(C)C(=O)Oc1cc(OC(=O)N(C)C)cc(C(O)CNC(C)(C)C)c1 (configuration not stated) | inactive | –
CN(C(=O)Cc1ccc(Cl)c(Cl)c1)C(CN1CCCC1)c1cccc(OCC(=O)O)c1 (configuration not stated) | inactive | –
